These results are taken from publication PMC12136788.

Some of the results follow.

To fix the notation:
B1: chr13:113752066:113752067:+_ENSG00000126217_ENST00000375604|hu_hu|motif|central (ssRNA)
RNA: GGGAGUUCUACAGUCCGACGAUCGGUGCGGCCUCCGAGGAGGCUGCAGUGCAGUGAGGCAGGGGCAGGGCUCUCUGAGCGGUGGUCGGCAGCACUGGUCCACGCCACACCCUGCAGAAACUGCAUCUUUGUAUUUUCUUUAAACAACAGAGGAUUGAGCAUCA
B2: chrX:41000244:41000245:+_ENSG00000124486_ENST00000378308|hu_hu|FALSE|FALSE (ssRNA)
RNA: GGGAGUUCUACAGUCCGACGAUCUGCUUCUUUUUUCAGUUCUUCAUCAGUUAAGUUUUCUAAAAACUGUGGAACCAUUUCUAUUAUUGGAAGAAAGUACUUUUUCACUGUAUGAAGAGUGAGAAACUCAUAGCAUUGCCCAAACAACAGAGGAUUGAGCAUCA
B3: chr16:94690093:94690094:+_ENSMUSG00000040785_ENSMUST00000117648|mus_hu|mus_mus_mus_hu_True|88_108 (ssRNA)
RNA: GGGAGUUCUACAGUCCGACGAUCGGGGACUCCUGUGGGACACACAGAUCUUCCCAGAGGGGGAAAAAGUCUUAGUCGAUACUAAUUAAAAAGUGUUAAUGAUUUUUGAAAAUCAGAUUACAUCUAUAAAAGAUGAAAAGCAAACAACAGAGGAUUGAGCAUCA
B4: chr2:42509997:42509998:+_ENSG00000143924_ENST00000318522|hu_mus|hu_hu_hu_mus_True|38_88 (ssRNA)
RNA: GGGAGUUCUACAGUCCGACGAUCUCGCUGAGUCCUCUCCUCAUAAUUAAAUAGUACUACCACUGAGGCGAUAAAAUAAACUAUCUCCCCUGUGGGAAGAAGGUAAACAUUCGCUCUACAGUCCUUUCCUCGAUAACCGUAUACCAACAGAGGAUUGAGCAUCA
B5: chr19:8913615:8913616:-_ENSMUSG00000071658_ENSMUST00000096259|mus_hu|mus_mus_mus_hu_False|58_98 (ssRNA)
RNA: GGGAGUUCUACAGUCCGACGAUCAGGGUACCAAAACACCCUGCCUCAAAUGGGUGCCCCACCCAGUAGGGAGUUGCAGCUAAAAAUAUCUGAUGCAGAAGCAGUGACUAUACGAAAGGAGGCCCCUGGGGAGGGCCAGGCCAGCAACAGAGGAUUGAGCAUCA
B6: chr19:8871807:8871808:-_ENSMUSG00000071662_ENSMUST00000096261|mus_mus|FALSE|FALSE (ssRNA)
RNA: GGGAGUUCUACAGUCCGACGAUCCACCACUUCACCUUUAAAGGGCCGGAAAACAAUAGCUUUGUAUUUCACUGGAUAAAGAACAAAACCUCGGCCUGGCUGGAUCACACCAGCACCAAUAUUGUCGAUGGUGGUGACAGCAAUCAACAGAGGAUUGAGCAUCA

In this test the target is T1, UNK ZnF1-3 (human, UniProt Q9C0B0 31-174).
T1 sequence: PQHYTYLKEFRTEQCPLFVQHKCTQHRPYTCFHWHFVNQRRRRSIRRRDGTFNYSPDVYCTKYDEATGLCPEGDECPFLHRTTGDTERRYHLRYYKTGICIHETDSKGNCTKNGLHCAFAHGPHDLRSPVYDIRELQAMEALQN
The test is described as follows: nsRBNS (natural sequence RNA bind-n-seq); RBNS binding buffer (assumed for nsRBNS): 25 mM Tris pH 7.5, 150 mM KCl, 3 mM MgCl2, 0.01% Triton X-100, 500 ug/ml BSA, 20 U/ml SUPERase-In, 4 C; UNK is unkempt and MSI1 is Musashi-1; names of the RNAs are library labels; protein concentration not given here; high values mean tight binding.
B1: the binding signal came to 0.819 enrichment R. Then B2, with 0.696 enrichment R; and B3, with 1.08 enrichment R; and B4, with 1.59 enrichment R. Molecule B5 gave a binding signal of 1.92 enrichment R. In turn, B6 yielded a binding signal of 1.27 enrichment R.
